Data published in patent publication US8927205.

Biological target: normal human wild-type TNF receptors on Kym1 cells
Experiment: cell-based or functional assay

Substance | ED50, cytotoxicity on Kym1 cells, solutions stored 16 days at 37° C. (FIG. 8) | ED50 after 22 days (FIG. 9), cytotoxicity on Kym1 cells, samples stored at 37° C. | ED50 freshly titrated (FIG. 7), cytotoxicity on Kym1 cells | ED50 after 8 days (FIG. 12), stored at 37° C. in 100% human serum, cytotoxicity on Kym1 cells | ED50 freshly titrated (FIG. 11), diluted in 100% human serum, cytotoxicity on Kym1 cells
scTNF3x (single-chain TNF with two (GGGS)3 peptide linkers) (a stretch of the chain, sequence not shown) (ligand) | 0.06 ng/mL | 0.07 ng/mL | 0.06 ng/mL | – | –
scTNF4x (single-chain TNF with two (GGGS)4 peptide linkers) (a stretch of the chain, sequence not shown) (ligand) | 0.06 ng/mL | 0.07 ng/mL | 0.06 ng/mL | 0.03 ng/mL | 0.007 ng/mL
